Assay results from PMC9911399, “Two distinct binding modes provide the RNA-binding protein RbFox with extraordinary sequence specificity”.
Residue numbers refer to the chain shown, from its start. This is one part of the list.

T1: RBFOX1 RRM (Homo sapiens, UniProt Q9NWB1 109-208)
T1 sequence: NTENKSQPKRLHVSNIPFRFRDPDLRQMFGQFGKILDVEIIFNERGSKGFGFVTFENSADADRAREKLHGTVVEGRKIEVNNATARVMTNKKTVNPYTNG

B1: GAGCCCC (DNA:RNA)
RNA: GGGAGACCGGAAUUCAGAUUGUCCGAGCCCCUUAAAUCCCGUCGUAGCCACCA
DNA 1: CAATCTGAATTCCGGTCTCCC
DNA 2: TGGTGGCTACGACGGGATT
B2: CUUACAG (DNA:RNA)
RNA: B1 RNA with G25C, A26U, G27U, C28A, C30A, C31G
DNA 1: CAATCTGAATTCCGGTCTCCC
DNA 2: TGGTGGCTACGACGGGATT
B3: UAAGGCA (DNA:RNA)
RNA: B1 RNA with G25U, G27A, C28G, C29G, C31A
DNA 1: CAATCTGAATTCCGGTCTCCC
DNA 2: TGGTGGCTACGACGGGATT
B4: CUAUCUU (DNA:RNA)
RNA: B1 RNA with G25C, A26U, G27A, C28U, C30U, C31U
DNA 1: CAATCTGAATTCCGGTCTCCC
DNA 2: TGGTGGCTACGACGGGATT
B5: CCUAUGC (DNA:RNA)
RNA: B1 RNA with G25C, A26C, G27U, C28A, C29U, C30G
DNA 1: CAATCTGAATTCCGGTCTCCC
DNA 2: TGGTGGCTACGACGGGATT
B6: AACCACC (DNA:RNA)
RNA: B1 RNA with G25A, G27C, C29A
DNA 1: CAATCTGAATTCCGGTCTCCC
DNA 2: TGGTGGCTACGACGGGATT
B7: CCGCGGA (DNA:RNA)
RNA: B1 RNA with G25C, A26C, C29G, C30G, C31A
DNA 1: CAATCTGAATTCCGGTCTCCC
DNA 2: TGGTGGCTACGACGGGATT
B8: UAUGCUG (DNA:RNA)
RNA: B1 RNA with G25U, G27U, C28G, C30U, C31G
DNA 1: CAATCTGAATTCCGGTCTCCC
DNA 2: TGGTGGCTACGACGGGATT
B9: GCCGCAA (DNA:RNA)
RNA: B1 RNA with A26C, G27C, C28G, C30A, C31A
DNA 1: CAATCTGAATTCCGGTCTCCC
DNA 2: TGGTGGCTACGACGGGATT
B10: UACAUAC (DNA:RNA)
RNA: B1 RNA with G25U, G27C, C28A, C29U, C30A
DNA 1: CAATCTGAATTCCGGTCTCCC
DNA 2: TGGTGGCTACGACGGGATT
B11: AUAUACG (DNA:RNA)
RNA: B1 RNA with G25A, A26U, G27A, C28U, C29A, C31G
DNA 1: CAATCTGAATTCCGGTCTCCC
DNA 2: TGGTGGCTACGACGGGATT
B12: CUAUAGC (DNA:RNA)
RNA: B1 RNA with G25C, A26U, G27A, C28U, C29A, C30G
DNA 1: CAATCTGAATTCCGGTCTCCC
DNA 2: TGGTGGCTACGACGGGATT
B13: AAGGAGG (DNA:RNA)
RNA: B1 RNA with G25A, C28G, C29A, C30G, C31G
DNA 1: CAATCTGAATTCCGGTCTCCC
DNA 2: TGGTGGCTACGACGGGATT
B14: UUGCGGA (DNA:RNA)
RNA: B1 RNA with G25U, A26U, C29G, C30G, C31A
DNA 1: CAATCTGAATTCCGGTCTCCC
DNA 2: TGGTGGCTACGACGGGATT
B15: ACUUCCA (DNA:RNA)
RNA: B1 RNA with G25A, A26C, G27U, C28U, C31A
DNA 1: CAATCTGAATTCCGGTCTCCC
DNA 2: TGGTGGCTACGACGGGATT
B16: AUCCGCG (DNA:RNA)
RNA: B1 RNA with G25A, A26U, G27C, C29G, C31G
DNA 1: CAATCTGAATTCCGGTCTCCC
DNA 2: TGGTGGCTACGACGGGATT
B17: AUAUGGC (DNA:RNA)
RNA: B1 RNA with G25A, A26U, G27A, C28U, C29G, C30G
DNA 1: CAATCTGAATTCCGGTCTCCC
DNA 2: TGGTGGCTACGACGGGATT
B18: CAUGGUC (DNA:RNA)
RNA: B1 RNA with G25C, G27U, C28G, C29G, C30U
DNA 1: CAATCTGAATTCCGGTCTCCC
DNA 2: TGGTGGCTACGACGGGATT
B19: ACGAUUA (DNA:RNA)
RNA: B1 RNA with G25A, A26C, C28A, C29U, C30U, C31A
DNA 1: CAATCTGAATTCCGGTCTCCC
DNA 2: TGGTGGCTACGACGGGATT
B20: AUGUUAG (DNA:RNA)
RNA: B1 RNA with G25A, A26U, C28U, C29U, C30A, C31G
DNA 1: CAATCTGAATTCCGGTCTCCC
DNA 2: TGGTGGCTACGACGGGATT
B21: GAUUAAC (DNA:RNA)
RNA: B1 RNA with G27U, C28U, C29A, C30A
DNA 1: CAATCTGAATTCCGGTCTCCC
DNA 2: TGGTGGCTACGACGGGATT
B22: UCCAACU (DNA:RNA)
RNA: B1 RNA with G25U, A26C, G27C, C28A, C29A, C31U
DNA 1: CAATCTGAATTCCGGTCTCCC
DNA 2: TGGTGGCTACGACGGGATT
B23: GAAUCGC (DNA:RNA)
RNA: B1 RNA with G27A, C28U, C30G
DNA 1: CAATCTGAATTCCGGTCTCCC
DNA 2: TGGTGGCTACGACGGGATT
B24: CGCCUCU (DNA:RNA)
RNA: B1 RNA with G25C, A26G, G27C, C29U, C31U
DNA 1: CAATCTGAATTCCGGTCTCCC
DNA 2: TGGTGGCTACGACGGGATT
B25: GAGCAAC (DNA:RNA)
RNA: B1 RNA with C29A, C30A
DNA 1: CAATCTGAATTCCGGTCTCCC
DNA 2: TGGTGGCTACGACGGGATT
B26: UCUAAUC (DNA:RNA)
RNA: B1 RNA with G25U, A26C, G27U, C28A, C29A, C30U
DNA 1: CAATCTGAATTCCGGTCTCCC
DNA 2: TGGTGGCTACGACGGGATT
B27: UGGAAUC (DNA:RNA)
RNA: B1 RNA with G25U, A26G, C28A, C29A, C30U
DNA 1: CAATCTGAATTCCGGTCTCCC
DNA 2: TGGTGGCTACGACGGGATT
B28: CCGGGUC (DNA:RNA)
RNA: B1 RNA with G25C, A26C, C28G, C29G, C30U
DNA 1: CAATCTGAATTCCGGTCTCCC
DNA 2: TGGTGGCTACGACGGGATT
B29: UAUGGAG (DNA:RNA)
RNA: B1 RNA with G25U, G27U, C28G, C29G, C30A, C31G
DNA 1: CAATCTGAATTCCGGTCTCCC
DNA 2: TGGTGGCTACGACGGGATT
B30: UACGGAC (DNA:RNA)
RNA: B1 RNA with G25U, G27C, C28G, C29G, C30A
DNA 1: CAATCTGAATTCCGGTCTCCC
DNA 2: TGGTGGCTACGACGGGATT
B31: UUCUGCU (DNA:RNA)
RNA: B1 RNA with G25U, A26U, G27C, C28U, C29G, C31U
DNA 1: CAATCTGAATTCCGGTCTCCC
DNA 2: TGGTGGCTACGACGGGATT

These binders were tested against T1, RBFOX1 RRM (assay: EMSA; HiTS-Eq, 1 nM pool, 10 min; buffer printed only for the single-RNA assays: 10 mM Tris pH 7.5, 150 mM NaCl, 3.4 mM EDTA, 0.001% NP-40, 30 C). Settings: tags: His6 N-terminal (pET28a); label: 5' 32P.
Procedure, shortened: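 Purified RbFox RRM, wild type or mutant, was incubated for 10 min in 50 µL with 1 nM of a 5′-radiolabelled RNA pool carrying 7 randomized nucleotides, whose flanks were annealed to DNA oligonucleotides, over a series of increasing protein concentrations. Unbound RNA was resolved on 8% native PAGE, cut out, reverse-transcribed, barcoded by PCR and sequenced on an Illumina HiSeq 2500. Relative association constants were derived from changes in read counts for each RNA species versus the control reaction and normalised to the cognate motif.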

Binder | binding signal
B1 | 0.00177 KA relative to UGCAUGU
B2 | 0.00477 KA relative to UGCAUGU
B3 | 0.0147 KA relative to UGCAUGU
B4 | 0.00729 KA relative to UGCAUGU
B5 | 0.00596 KA relative to UGCAUGU
B6 | 0.0024 KA relative to UGCAUGU
B7 | 0.00965 KA relative to UGCAUGU
B8 | 0.0191 KA relative to UGCAUGU
B9 | 0.014 KA relative to UGCAUGU
B10 | 0.00108 KA relative to UGCAUGU
B11 | 0.00215 KA relative to UGCAUGU
B12 | 0.00226 KA relative to UGCAUGU
B13 | 0.00964 KA relative to UGCAUGU
B14 | 0.0101 KA relative to UGCAUGU
B15 | 0.00106 KA relative to UGCAUGU
B16 | 0.00266 KA relative to UGCAUGU

Binder | binding signal
B17 | 0.00904 KA relative to UGCAUGU
B18 | 0.0144 KA relative to UGCAUGU
B19 | 0.00337 KA relative to UGCAUGU
B20 | 0.0112 KA relative to UGCAUGU
B21 | 0.00739 KA relative to UGCAUGU
B22 | 0.00165 KA relative to UGCAUGU
B23 | 0.011 KA relative to UGCAUGU
B24 | 0.00986 KA relative to UGCAUGU
B25 | 0.00999 KA relative to UGCAUGU
B26 | 0.00734 KA relative to UGCAUGU
B27 | 0.0233 KA relative to UGCAUGU
B28 | 0.0244 KA relative to UGCAUGU
B29 | 0.0043 KA relative to UGCAUGU
B30 | 0.00445 KA relative to UGCAUGU
B31 | 0.0203 KA relative to UGCAUGU
